Laboratory results as given in PMC13083723 (Patterns, 2026).
In all, about 5,400 compounds went through this assay and about 190 (3.5%) showed an effect of 50% or more. The list shows a part of the results.

System: Vero-E6
Assay: primary screen, phospholipidosis by LipidTOX staining; higher = more effect of the substance
Details: 10 µM
Procedure, shortened: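 Drug-induced phospholipidosis detected with HCS LipidTOX Red reagent in Vero-E6 cells. Compounds tested at 10 μM, with amiodarone (10 μM) as positive control and DMSO (0.1 v/v %) as vehicle.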

SMILES	result_ITMP [%]
CCOc1ccc(Cc2cc([C@@H]3O[C@H](SC)[C@@H](O)[C@H](O)[C@H]3O)ccc2Cl)cc1	1.32
N#C/C(=C\c1ccc(O)c(O)c1)C(N)=O	-4.24
CO[C@@H]1COCC[C@@H]1N[C@@H]1CC[C@@](C(=O)N2CCc3ncc(C(F)(F)F)cc3C2)(C(C)C)C1	7.4
CC(C)(C)C(=O)OCOP(=O)(COCCn1cnc2c(N)ncnc21)OCOC(=O)C(C)(C)C	-1.22
CC(C)CC(N)C1(c2ccc(Cl)cc2)CCC1 (stereo not drawn)	9.43
COc1ccc(CCNCc2ccc(OCc3ccc(Cl)nc3)c(OC)c2)cc1OC	59.3
Cn1c(=O)cnn(CCCCN2CCN(c3ncccn3)CC2)c1=O	0.56
COc1cc2c(c(OC)c1OC)-c1c(cc3c(c1OC)OCO3)C[C@H](C)[C@@](C)(O)C2	-2.3
CC(=O)O[C@H]1CC[C@@]2(C)C(=CCC3C2CC[C@]2(C)C(=O)CCC32)C1 (stereo partly drawn)	0.97
CCCCc1nc(Cl)c(C(=O)O)n1Cc1ccc(-c2ccccc2-c2nnn[nH]2)cc1	-4.07
Cc1cccc(/C=N/Nc2cc(N3CCOCC3)nc(OCCc3ccccn3)n2)c1	-0.71
CC(C)(S)[C@@H](N)C(=O)O	16.6
Cc1ccc(NC(=O)c2ccc(CN3CC[C@H](N(C)C)C3)c(C(F)(F)F)c2)cc1Nc1nccc(-c2cncnc2)n1	18.8
O=C(O)C1CSCN1 (stereo not drawn)	-4.52
CC(=O)NC[C@H]1CN(c2ccc(N3CCSCC3)c(F)c2)C(=O)O1	5.74
Cc1cc(C(=O)NNCc2ccccc2)no1	-10.7
O=S(=O)(NCC1CC1)c1ccc(Nc2nccc(N3CCCc4cc(O)ccc43)n2)cc1	-9.55
O=C(O)CCCN1C(=O)c2cccc3cccc(c23)C1=O	-9.41
COc1ccc(-c2ccc(=N)n(CCCC(=O)O)n2)cc1	-1.58
CS(=O)(=O)c1cccc(CNc2nc(Nc3ccc4c(c3)CCC(=O)N4)ncc2C(F)(F)F)c1	-6.68
CCO[C@H]1O[C@@H]2O[C@@]3(C)CC[C@H]4[C@H](C)CC[C@@H]([C@H]1C)[C@@]24OO3	-2.4
COc1cc(OCc2cccc(-c3ccccc3)c2C)cc(OC)c1CN1CCCC[C@H]1C(=O)O	-1.58
CCCCCCCCCCC[C@@H](C[C@@H]1OC(=O)[C@H]1CCCCCC)OC(=O)[C@H](CC(C)C)NC=O	-8.59
CC(C)(C)n1nc(-c2ccc(Cl)cc2)c2c(N)ncnc21	0.6

SMILES	result_ITMP [%]
CCCCCCCCCCCCCCOC(=O)c1cccnc1	3.32
Cn1cc(C(=O)c2cccc3ccccc23)cc1C(=O)O	-1.38
Cn1c(=O)c2c(ncn2CC(=O)O)n(C)c1=O	-4.41
O=C(CC(c1ccccc1)c1ccccc1)N1CCN(C(c2ccccc2)c2ccccc2)CC1	-0.66
O=c1cc(N2CCNCC2)oc2c(-c3ccccc3)cccc12	19.1
O=C1C2CCN(CC2)C1(CO)CO	-2.06
COc1cc2ncc(-c3ccccc3)nc2cc1OC	-10.1
Cc1ccccc1N(C)C(=O)c1ccc(S(=O)c2nccs2)c([N+](=O)[O-])c1 (stereo not drawn)	70.1
CCC[C@H](Nc1nc(-c2ccc(NC(=O)NCC)c(OC)c2)ncc1C)c1cccnc1	39.9
C=CCC1(CC(C)C)C(=O)NC(=O)NC1=O	-3.26
COc1ccc(C(=O)Nc2sc3c(c2C(N)=O)CCCC3)cc1OC	-1.46
CC(=O)N[C@@H](CCC(N)=O)C(=O)O	3.75
O=C(Nc1cccc(C(F)(F)F)c1)Nc1ccc(Br)cc1-c1nnn[nH]1	0.77
CC(=O)NO	2.78
CCC(C(=O)O)c1ccc(CC(C)C)cc1 (stereo not drawn)	-4.5
CN(C)CC/C=C1\c2ccccc2CSc2ccccc21	43.7
COc1ccc([C@]2(O)CC[C@@H](N3CC[C@@H](NC(=O)CNC(=O)c4cccc(C(F)(F)F)c4)C3)CC2)cn1	-1.15
O=C(CCCN1CCC(n2c(=O)[nH]c3ccccc32)CC1)c1ccc(F)cc1	0.96
COc1cc(Nc2ncc(F)c(Nc3ccc4c(n3)NC(=O)C(C)(C)O4)n2)cc(OC)c1OC	4.81
COc1ccc(CCNCC(O)COc2cccc(C)c2)cc1OC (stereo not drawn)	34.1
CNC(=O)c1cccc(NC(=O)N2CCC(Oc3ccccc3Cl)CC2)c1	-1.62
CN1CCCN=C1COC(=O)C(O)(c1ccccc1)C1CCCCC1 (stereo not drawn)	-2.78
CC(C)(Oc1ccc(Cl)cc1)C(=O)O	-1.36
CC[C@H]1OC(=O)[C@@](C)(F)C(=O)[C@H](C)[C@@H](O[C@@H]2O[C@H](C)C[C@H](N(C)C)[C@H]2O)[C@](C)(OC)C[C@@H](C)C(=O)[C@H](C)[C@H]2N(CCCCn3cc(-c4cccc(N)c4)nn3)C(=O)O[C@]12C	11.3

SMILES	result_ITMP [%]
Clc1ccc(COC(Cn2ccnc2)c2ccc(Cl)cc2Cl)c(Cl)c1 (stereo not drawn)	5.2
O=C(NCCN1CCC(n2c(=O)[nH]c3ccccc32)CC1)c1cc2cc(F)ccc2[nH]1	8
N=C1NCCN1CC(=O)O	1.96
NCCC(Oc1ccc(C(F)(F)F)cc1)c1ccccc1 (stereo not drawn)	62.2
Cc1cc(=O)n(-c2ccccc2)n1C	-2.37
CS(=O)(=O)n1cc2c(n1)CN([C@H]1CO[C@H](c3cc(F)ccc3F)[C@@H](N)C1)C2	0.04
CCCN(CCc1cccs1)[C@H]1CCc2c(O)cccc2C1	2.79
CC(C)(C)C(=O)NCCCC(=O)O	-5.58
N#Cc1ccc(N(Cc2ccc(Br)cc2)n2cnnc2)cc1	-1.94
Cn1ncc(Cl)c1-c1cc(C(=O)N[C@H](CN)Cc2cccc(F)c2)sc1Cl	69.5
Cc1ccc(/C=C2/C(=O)C3(C)CCC2C3(C)C)cc1 (stereo not drawn)	-2.21
CC(C)(C)C[C@@H]1N[C@@H](C(=O)N[C@H]2CC[C@H](O)CC2)[C@H](c2cccc(Cl)c2F)[C@]12C(=O)Nc1cc(Cl)ccc12	29.6
O=c1c2ccccc2oc2ccccc12	-2.07
Fc1cc(F)c2c(c1)[C@H]1C=CC[C@H]1C(c1cccnc1)N2 (mixture of isomers)	-14.4
CC(C)(C)c1cc(C(=O)/C(C#N)=N/Nc2cccc(Cl)c2)no1	-1.63
Cc1ccc(-c2ncc(Cl)cc2-c2ccc(S(C)(=O)=O)cc2)cn1	-1.48
NCC(=O)O	-0.53
CCCc1c(OCCCCc2nnn[nH]2)ccc(C(C)=O)c1O	-2.7
O=[N+]([O-])c1nccn1CC(O)CN1CCCCC1 (stereo not drawn)	-2.43
CC1CCc2c(N3CCC(O)CC3)c(F)cc3c(=O)c(C(=O)O)cn1c23 (stereo not drawn)	1.06
CN(C)C(=N)NCCC[C@H](N)C(=O)O	-6.33
CC(C)[C@@H]1CC[C@@H](C)C[C@@H]1P(=O)(c1ccccc1)c1ccccc1	20.3
OC[C@H]1O[C@@H](c2ccc(F)c(Cc3cc4ccccc4s3)c2)[C@H](O)[C@@H](O)[C@@H]1O	0.18
O=C(OC(C(F)(F)F)C(F)(F)F)N1CCC(C(O)(c2ccc3c(c2)OCO3)c2ccc3c(c2)OCO3)CC1	-0.06

SMILES	result_ITMP [%]
NC(N)=N/C(N)=N/CCc1ccccc1	-1.11
C[C@@H]1NC(=O)NC1=O	-6.33
Cc1csc(S(=O)(=O)N(CC(C)C)c2cc3c(cc2OCc2ccc(C(=O)O)cc2)CCC3)n1	-7.13
CCCCCC(O)CCCC(=O)[O-] (stereo not drawn)	-2.69
Nc1ncnc(Nc2ccc(Cl)cc2)n1	-1.52
CC(C)(C)c1ccc(C(=O)Nc2cn3cc(-n4ccnc4)ccc3n2)cc1	1.75
Nc1nnc2[nH]c3ccccc3nc1-2	-7.77
CCCCCCCCCCCCCCCC(=O)NCCO	-0.94
CCCCCCCCCCCCCCCC(=O)OC(CC(=O)O)C[N+](C)(C)C (stereo not drawn)	0.17
N[C@H](Cc1c[nH]cn1)C(=O)O	1.48
Cc1sc2c(c1C)C(c1ccc(Cl)cc1)=N[C@@H](CC(=O)OC(C)(C)C)c1nnc(C)n1-2	13.2
Cc1c(Cc2ccc3ccccc3n2)c2cc(F)ccc2n1CC(=O)O	-5.37
CO[C@@H](C(=O)N1Cc2[nH]nc(NC(=O)c3ccc(N4CCN(C)CC4)cc3)c2C1)c1ccccc1	6.88
CC(=O)[C@@]12OC(C)(c3ccccc3)O[C@@H]1C[C@H]1[C@@H]3CCC4=CC(=O)CC[C@]4(C)[C@H]3CC[C@@]12C (stereo partly drawn)	-0.91
Cc1c(C(=O)NCCCO)cnn1-c1nc(-c2cccc(C(F)(F)F)c2)cs1	-0.84
Cc1cccc(N2CC(CO)OC2=O)c1 (stereo not drawn)	-0.17
C=CC(=O)N1CCC(Oc2cc3c(Nc4ccc(Cl)c(Cl)c4F)ncnc3cc2OC)CC1	35.1
CC(=O)NC[C@H]1CN(c2ccc(N3CCN(C(=O)CO)CC3)c(F)c2)C(=O)O1	-1.38
CC(C)c1cccc2c1OC(C(C)C)C(=S)N2CC(=O)O (stereo not drawn)	-9.41
c1ccc2sc(SNC3CCCCC3)nc2c1	-0.51
C[C@H](NC(=O)CNC(=O)c1cccc(Cl)c1)c1ccccc1	-1.81
Cc1cc(Nc2ccc(NC(=O)c3ccc(Nc4ccnc5ccccc45)cc3)cc2)nc(N)n1	13.5
CCC(Cc1c(I)cc(I)c(N)c1I)C(=O)O (stereo not drawn)	-2.69
CCC(NC(C)C)C(O)c1ccc(O)c(O)c1 (stereo not drawn)	19.2
